# In PMC4336329 (PLoS ONE, 2015):
# The whole screen tested about 310,000 compounds, of which about 14,000 (4.5%) showed an effect of 50% or more. Effects have a minus sign here. The list shows a part of the results.
# Biological target: human ether-à-go-go-related gene (hERG) potassium channel (human, UniProt Q12809)
# Assay: primary screen, population patch clamp on CHO cells stably expressing hERG
# 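Further: peak tail current of the secondary pulse compared with the same well before compound.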
# Sequence of human ether-à-go-go-related gene (hERG) potassium channel (Q12809 whole entry, looked up): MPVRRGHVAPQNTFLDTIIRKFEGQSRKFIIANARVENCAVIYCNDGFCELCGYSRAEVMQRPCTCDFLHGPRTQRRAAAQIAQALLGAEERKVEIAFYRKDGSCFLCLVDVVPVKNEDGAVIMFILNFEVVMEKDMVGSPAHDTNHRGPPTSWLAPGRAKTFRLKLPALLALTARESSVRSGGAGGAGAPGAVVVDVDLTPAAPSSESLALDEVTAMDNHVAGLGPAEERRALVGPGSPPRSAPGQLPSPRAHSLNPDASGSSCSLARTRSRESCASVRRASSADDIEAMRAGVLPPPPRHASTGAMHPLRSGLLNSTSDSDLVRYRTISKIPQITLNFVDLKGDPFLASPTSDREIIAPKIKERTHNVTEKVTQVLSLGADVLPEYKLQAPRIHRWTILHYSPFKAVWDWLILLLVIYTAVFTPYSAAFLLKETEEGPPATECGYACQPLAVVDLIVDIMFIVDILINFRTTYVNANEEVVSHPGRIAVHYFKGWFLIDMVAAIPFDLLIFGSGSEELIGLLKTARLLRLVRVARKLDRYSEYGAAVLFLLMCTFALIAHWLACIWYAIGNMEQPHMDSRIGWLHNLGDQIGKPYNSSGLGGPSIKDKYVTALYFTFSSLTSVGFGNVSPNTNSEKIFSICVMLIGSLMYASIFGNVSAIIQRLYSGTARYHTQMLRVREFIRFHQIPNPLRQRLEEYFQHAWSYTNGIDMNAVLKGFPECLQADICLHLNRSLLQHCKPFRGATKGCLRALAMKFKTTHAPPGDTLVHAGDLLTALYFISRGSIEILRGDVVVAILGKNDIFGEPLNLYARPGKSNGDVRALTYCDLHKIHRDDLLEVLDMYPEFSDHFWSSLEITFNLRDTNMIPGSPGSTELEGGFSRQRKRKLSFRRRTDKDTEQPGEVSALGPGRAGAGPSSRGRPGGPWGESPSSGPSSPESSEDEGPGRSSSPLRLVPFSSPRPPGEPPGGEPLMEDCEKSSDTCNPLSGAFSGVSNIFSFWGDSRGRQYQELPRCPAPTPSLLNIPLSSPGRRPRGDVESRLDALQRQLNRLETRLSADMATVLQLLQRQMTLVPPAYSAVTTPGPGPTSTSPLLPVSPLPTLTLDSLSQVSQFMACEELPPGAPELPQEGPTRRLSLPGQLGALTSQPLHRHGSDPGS
row,SMILES,"hERG current change (%, negative = inhibition) at 10uM"
1,O=C(O)CCNC(=O)c1ccc(NC(=O)Cc2ccc(Cl)cc2)cc1,21.8%
2,NC(=O)NC(=O)COC(=O)c1cccnc1Nc1ccccc1F,14.1%
3,S=C(NCc1ccccc1)NCc1ccccc1Cl,5.84%
4,COC(=O)C1=CN(c2cc(C)cc(C)c2)C=C(C(=O)OC)C1c1cccc(F)c1,26.8%
5,O=C1CC(NNC(=O)c2cccc(F)c2)C(=O)N1 (stereo not shown),17.9%
6,N/C(=N\OC(=O)Nc1ccc(Cl)c(Cl)c1)c1ncc(C(F)(F)F)cc1Cl,1.28%
7,COc1nccnc1NS(=O)(=O)c1ccc(NC(=S)NC(=O)c2ccc(F)cc2)cc1,7.4%
8,Cc1ccccc1OCC(=O)Nc1ccc2c(c1)C(=O)c1ccccc1C2=O,12.4%
9,CCc1nnc(NC(=O)CSc2nnc(C3CC3)n2C)s1,1.31%
10,CC(=O)Nc1ccc(S(=O)(=O)NCCC(=O)OC(C)C(=O)c2ccc(C)cc2)cc1 (stereo not shown),-6.85%
11,Cc1ccc(CC(CC(=O)NCCc2ccc3c(c2)OCO3)C(=O)O)cc1 (stereo not shown),0.663%
12,CC(=O)c1ccc(S(=O)(=O)N2Cc3ccccc3CC2C(=O)O)cc1 (stereo not shown),7.05%
13,COc1cc(NC(=O)COC(=O)c2n[nH]c3ccccc23)c(C)cc1[N+](=O)[O-],20.4%
14,CC(=O)Nc1ccc(OCC(O)CN2CCN(S(=O)(=O)c3ccc(NC(C)=O)cc3)CC2)cc1 (stereo not shown),-8.63%
15,O=C(CSc1nc2ccc(Nc3nc(N4CCOCC4)nc(N4CCOCC4)n3)cc2s1)Nc1ccccc1Cl,13%
16,O=C(NCC(c1ccco1)N1CCN(c2ccccc2F)CC1)c1ccc2c(c1)OCO2 (stereo not shown),-20.8%
17,CC1CCN(c2cc(N)c(Cl)cc2[N+](=O)[O-])CC1,-4.38%
18,O=C(C1CCC(CNS(=O)(=O)c2cccc3nsnc23)CC1)N1CC=C(c2ccccc2)CC1 (stereo not shown),-10.3%
19,Cc1ccc(-c2nnn(C(C)C(=O)N3c4ccccc4CCc4ccccc43)n2)cc1 (stereo not shown),6.37%
20,O=C(Nc1cccc(C(=O)N2CCN(c3ccc(F)cc3)CC2)c1)c1ccccc1,-58.7%
21,CCOC(=O)COn1c(=O)c(-c2ccc(Cl)cc2)[n+]([O-])c2ccccc21,-4.24%
22,COc1ccc(N/C=C/C(=O)c2ccc(C)cc2)c([N+](=O)[O-])c1,16.9%

row,SMILES,"hERG current change (%, negative = inhibition) at 10uM"
1,COc1cccc(NC(=O)NC2CCN(CC(=O)Nc3ccccc3[N+](=O)[O-])CC2)c1,-39.4%
2,Cc1ccc(N2C(=O)C(NC(=O)c3c(F)cccc3F)(C(F)(F)F)C3=C2CC(C)(C)CC3=O)cc1 (stereo not shown),9.34%
3,CCOC(=O)C1=C(CC)OC(N)=C(C#N)C1c1ccc(OC)c(OC)c1OC (stereo not shown),0.305%
4,O=C(O)/C(=C\c1ccc(Cl)cc1)c1ccc(F)cc1,4.73%
5,Cc1cccc(-n2ncc3c(Nc4ccc(F)cc4)ncnc32)c1,9.56%
6,Cc1ccc(S(=O)(=O)NCC(=O)N(CC(=O)NC2CCCCC2)Cc2ccco2)cc1,-38.7%
7,CCCCCN1CC(=O)N2Cc3[nH]c4ccccc4c3C[C@H]2C1=O,-7.47%
8,COc1cc2nc(COc3ccccc3[N+](=O)[O-])oc(=O)c2cc1OC,2.86%
9,CC(=O)Nc1ccc(NC(=O)C(C)OC(=O)C2CC(=O)N(CCc3ccccc3)C2)cc1 (stereo not shown),14.4%
10,COC(=O)C1=C(C)NC(c2c(O)ccc3ccccc23)C(C(=O)OC)=C1C (stereo not shown),-2.31%
11,Cc1ccc2c(c1)NC(=O)C(CC(=O)NCCCN1CCCCC1)O2 (stereo not shown),-0.113%
12,COC(=O)c1ccc(NC(=O)CCS(=O)(=O)c2ccc(Br)s2)cc1,14.1%
13,CCOc1ccc(N/C=C/C(=O)c2cc(OC)c(OC)c(OC)c2)cc1,-7.15%
14,COC(=O)CN1C(=O)N/C(=C/c2cc3c(cc2OC)OCO3)C1=O,-2.11%
15,Cc1ccc(CNC(=O)COc2ccc3c(c2)CCC3)cc1,-13.3%
16,COc1cccc2c1OCC([C@@H]1C[C@H]3CN(Cc4cccc(Cl)c4)C(=O)[C@]34CCCN14)=C2,-45.2%
17,CCOC(=O)C[C@H]1c2ccccc2S(=O)(=O)N1c1ccccc1,3.36%
18,COc1ccc(C2=CC(c3ccc(F)cc3)n3nnnc3N2)cc1 (stereo not shown),21.9%
19,CSc1ccc(C#N)cc1NC(=O)c1ccccc1C,-49.2%
20,O=C(Nc1nnc(-c2ccc(F)cc2)s1)c1ccco1,14.5%
21,CCCNC(=O)C1(CC2CC(c3ccccc3)=NO2)CCN(C(=O)OC(C)(C)C)CC1 (stereo not shown),-48.6%
22,O=C(Cn1cnc2c(nnn2Cc2ccc(F)cc2)c1=O)OCc1ccccc1,-7.74%

row,SMILES,"hERG current change (%, negative = inhibition) at 10uM"
1,CN(C)C(=O)c1ccc(NC(=O)c2sccc2-c2ccccc2)cc1,11%
2,CN(C(=O)C1CCCC1)C1CCS(=O)(=O)C1 (stereo not shown),17.3%
3,Cc1cccc(NC(=O)c2cccc(S(=O)(=O)N3CCCC3)c2)n1,-8.05%
4,COC(=O)c1scc(C)c1NC(=O)C1CCCCC1,8.47%
5,CC1(C)CC2CC(C)(CN2C(=S)NC(=O)c2ccccc2Cl)C1 (stereo not shown),3.14%
6,O=C(COC(=O)c1cccs1)NCc1cccs1,16.5%
7,O=C(CN1C(=O)c2ccccc2S1(=O)=O)Nc1ccccc1C(=O)NCc1ccco1,7.89%
8,O=C(CSc1ccccc1)Nc1ccccc1C(=O)O,2.87%
9,Cc1nc2c(-c3ccccc3)c(C)nn2c(C)c1CCC(=O)N1CCC2(CC1)OCCO2,-40.5%
10,Cc1ccc(C(C(=O)NCc2ccco2)N(C(=O)Cc2cccs2)c2cccnc2)cc1 (stereo not shown),20.4%
11,COc1cc(/C=N\NC(=O)c2c(C)nc3cc(C)ccn23)ccc1O,0.355%
12,O=C(CN1CCCC1)N1CCCc2ccccc21.O=C(O)C(=O)O,13.8%
13,COC(=O)c1cn(-c2cccc(C)n2)cn1,11.7%
14,Cc1cc(C)n(C(=O)CNC(=O)c2ccc(Cl)cc2Cl)n1,-7.79%
15,CCC1Oc2ccc(C)cc2N(CC(=O)N(Cc2ccncc2)Cc2ccco2)C1=O (stereo not shown),-31.4%
16,CC1(OC(=O)C2CCCC2)C(=O)C=C2C=C3CCCCN3C=C2C1=O (stereo not shown),20.4%
17,COc1ccc(/C=N/Nc2ncnc3sc4c(c23)CCCC4)cc1OC,0.863%
18,CCO/C=C1\C(=O)N(c2ccc(OCC)cc2)C(=O)c2ccccc21,16.4%
19,COCCSc1ccccc1C(=O)N1CCN(c2ccccc2OC)CC1,8.73%
20,Cc1ccccc1NNC(N)=S,5.65%
21,O=S(=O)([N-]c1nc2ccccc2nc1-[n+]1ccc(CCCc2ccccc2)cc1)c1cccs1,5.49%
22,Cc1ccc2nc3sc(C(=O)N4CCOCC4)c(N)c3cc2c1,4.91%

row,SMILES,"hERG current change (%, negative = inhibition) at 10uM"
1,COc1ccc(CNC(=O)c2ccc(CS(=O)(=O)c3ccc(C)cc3)o2)cc1,-6.81%
2,c1c2c(cc3sc(N4CCOCC4)nc13)OCO2,14.1%
3,CS(=O)(=O)N(Cc1cccc(CN(C(C(=O)O)c2ccccc2)S(C)(=O)=O)c1)C(C(=O)O)c1ccccc1 (stereo not shown),17%
4,COc1ccc(NC(=O)[C@H](C)NC(=O)[C@@H]2Cc3ccccc3CN2C(=O)OC(C)(C)C)cc1,8.54%
5,COc1cc2[nH]c(C(=O)NN)c(N)c2cc1OC,14.6%
6,CCOC(=O)C1(CCOC)CCN(C/C=C/c2ccccc2OC)CC1,-46.1%
7,CCCCS(=O)(=O)Nc1ccc2c(c1)ncn2C1CCCCC1,-32.7%
8,Cc1nnc(NC(=O)CSc2nnnn2Cc2ccccc2)s1,-3.64%
9,COc1cc2c(cc1OC)CN(C(=O)COc1ccc(C#N)cc1)CC2,-63.4%
10,C=CCn1c(SCC(=O)c2cccs2)nc2sc(C)cc2c1=O,1.56%
11,CCOC(=O)C1CCCN(CC(O)COCc2ccccc2OC)C1 (stereo not shown),-9.18%
12,CC1=Nc2nc(N3CCCCC3)c(C#N)c3c4c(nc(c23)N1)N(c1ccc(C(C)C)cc1)C(=O)C4.CN(C)C=O,4.19%
13,CC(C)n1c(O)c(C=NCc2ccccc2)c(=O)[nH]c1=S,33.4%
14,CC(C)(C)OC(=O)NCCCC[C@H](NC(=O)c1nc[nH]c1C(=O)NC(c1ccccc1)c1ccccc1)C(=O)OC(C)(C)C,8.48%
15,Cc1ccc2c(=O)n3c(nc2c1)C(Cc1ccccc1)NC(=O)c1ccc(Cl)cc1-3 (stereo not shown),9.28%
16,Cc1ccc(S(=O)(=O)N(C)C)cc1NC(=O)COC(=O)/C=C/c1cnc2ccccc2n1,3.06%
17,Cc1ccccc1CC(=O)Nc1ccon1,8%
18,CCc1ccccc1Nc1cc(C(=O)NCc2ccccn2)c2ccccc2n1,-57.8%
19,CC(=O)COC(=O)C1=NN(c2ccccc2)C(=O)CC1,23.7%
